# Data from PubChem BioAssay AID1346428 (National Center for Advancing Translational Sciences (NCATS), 2018).
# About 1,200 (2.5%) of roughly 48,000 compounds were called active. Not shown: some 2% with an inconclusive outcome.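 How the source made its calls: active means activation of at least 60% and not above a set upper limit (about 1 call in 100 departs from these limits); inconclusive means activation of 40% to 60%, or above that upper limit; inactive means activation under 40%.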 This is one part of the list.
# Molecular target: Probable G-protein coupled receptor 32 (Homo sapiens) (UniProt O75388)
# Sequence of UniProt O75388 (O75388 whole entry, looked up): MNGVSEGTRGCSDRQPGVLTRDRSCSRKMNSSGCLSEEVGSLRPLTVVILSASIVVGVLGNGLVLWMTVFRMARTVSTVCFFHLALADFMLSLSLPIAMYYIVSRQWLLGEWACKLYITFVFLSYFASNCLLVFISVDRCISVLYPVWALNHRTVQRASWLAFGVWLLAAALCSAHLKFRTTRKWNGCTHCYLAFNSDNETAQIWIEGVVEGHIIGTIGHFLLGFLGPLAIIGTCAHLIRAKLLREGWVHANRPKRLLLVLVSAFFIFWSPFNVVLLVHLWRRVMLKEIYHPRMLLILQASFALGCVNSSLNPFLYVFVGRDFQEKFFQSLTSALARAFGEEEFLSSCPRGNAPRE
# Assay: qHTS for Agonists of Human Resolvin D1 Receptor DRV1; further: 0% is about no effect
# Conditions: CHO-K1 GPR32 beta-arrestin PathHunter luminescence, 90 min; at 76.9 µM; hits give high values; zero percent set by DMSO-only wells
# Procedure, shortened: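 Agonism was scored by beta-Gal fragment complementation (chemiluminescent read, 1 h detection at ambient temperature) reporting beta-arrestin binding to GPR32 in engineered CHO-K1 cells. Compound treatment lasted 90 min at 37 C, normalized to a DMSO basal control.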
row,Compound,activation
1,CCC(C(=O)Nc1ccc(C(C)=O)cc1)n1cnc2nc3c(cc2c1=O)CCCC3 (stereo not drawn),inactive: -12.3%
2,COc1cc(C(CC(=O)NCc2ccccc2)N2Cc3ccccc3C2=O)cc(OC)c1OC (stereo not drawn),inactive: -3.39%
3,Cc1cc(C)cc(NC(=O)CCc2nnc3n(C)c(=O)c4sccc4n23)c1,inactive: 8.08%
4,Cc1cc(C)n2nc(CNC(=O)c3ccccc3Cl)nc2n1,inactive: 7.53%
5,O=C(NCCc1csc(-c2ccc(F)cc2)n1)c1ccco1,active: 109%
6,CC1=C(C(=O)Nc2cc(Cl)ccc2C)C2(CCCCC2)OC1=O,inactive: -25.6%
7,COc1ccc2c(C)c(CCC(=O)NCc3ccc(C)cc3)c(=O)oc2c1,inactive: 42.5%
8,CCSc1ccc(C(=O)Nc2ccc(-c3nc4ccc(C)cc4s3)cc2)cc1,inactive: 25.7%
9,COC(=O)c1c(SC)nc2ccccc2c1OCc1ccccc1Cl,inactive: -19.3%
10,CCOc1ccc(NC(=O)C2CCN(c3nc4ccccc4[nH]3)CC2)cc1,inactive: -21.8%
11,CC(C)(C)OC(=O)N1CCC(c2c(C(=O)NCCc3ccsc3)cnn2-c2ccccc2Cl)CC1,inactive: -18.4%
12,CCOc1ccc(N2C(=O)CS(=O)(=O)C23C(=O)N(Cc2cccc(Cl)c2)c2ccccc23)cc1 (stereo not drawn),inactive: -14%
13,COC(=O)C1=C(C)N=C2SCCC(=O)N2C1c1ccc(OCc2ccccc2)c(OC)c1 (stereo not drawn),inactive: -3.64%
14,CCOC(=O)c1c(C)[nH]c(C)c1S(=O)(=O)N(C)CC(=O)N1CCN(c2ccc(Cl)cc2)CC1,inactive: 45.8%
15,Cc1ccc(-c2c(C(=O)N3CCN(c4cccc(C)c4)C(C)C3)oc(=O)c3ccccc23)cc1 (stereo not drawn),inactive: -22.7%
16,COc1cc(OC)cc(C(=O)Nc2cc(-c3nc4ccccc4[nH]3)ccc2C)c1,inactive: -5.77%
17,CCOC(=O)C1CCCN(c2nc3c(S(=O)(=O)c4ccc(Br)cc4)nnn3c3ccsc23)C1 (stereo not drawn),inactive: -29.8%
18,O=C(/C=C/c1ccco1)Nc1ccc(F)cc1,inactive: -15.4%
19,COC(=O)c1c(SC)nc2ccccc2c1OCc1ccc(Br)cc1,inactive: -3.87%
20,OC[C@H]1O[C@@H](O[C@@H]2[C@@H](CO)O[C@](O)(CO)[C@H]2O)[C@H](O)[C@@H](O)[C@H]1O,inactive: -4.21%
21,CCOC(=O)CN1CCCC1=O,inactive: -5.59%

row,Compound,activation
1,CCn1nc(-c2ccccc2)c(-c2ccccc2)c(C(=O)Nc2ccc(S(N)(=O)=O)cc2)c1=O,inactive: -9.79%
2,COc1ccc(C(=O)Nc2ccc(-c3nnc4n3CCCCC4)cc2)cc1,inactive: 45.5%
3,COc1cccc2c1Oc1ncccc1N(C(=O)CCC(=O)NCCC(C)C)C2,inactive: -8.02%
4,O=c1c2sccc2n(Cc2cc(=O)n3ccccc3n2)c(=O)n1-c1cc(F)ccc1F,inactive: -11.1%
5,Cc1ccccc1CNC(=O)c1nn(-c2ccccc2F)nc1CO,inactive: -4.25%
6,O=S(=O)(c1ccc(Cl)cc1)c1nc(-c2ccccc2Br)oc1NCc1ccccc1,inactive: -8.64%
7,Cc1cc(C)c(NC(=O)CSc2nc3ccccc3c3nc(CCn4cncc4C)nn23)c(C)c1,inactive: 14.8%
8,CCN(CC)CCCNc1cc(-c2ccccc2)nc(C)n1,inactive: -8.48%
9,Cc1ccc(C)c(OCCn2c(C3CC(=O)N(Cc4ccc(F)cc4)C3)nc3ccccc32)c1 (stereo not drawn),inactive: -18.3%
10,CCN1CCN(C(=O)c2ccc3c(c2)N(Cc2cccc(Cl)c2)C(=O)c2ccccc2S3=O)CC1 (stereo not drawn),inactive: -22.2%
11,COc1ccc(CCNC(=O)CSc2nc3nc(C)c(Cc4ccc(C)cc4)c(C)n3n2)cc1OC,inactive: -8.87%
12,COc1ccc(-n2cc(C(=O)N(CCN(C)C)Cc3ccccc3)c3ccccc3c2=O)cc1,inactive: -11.1%
13,Cc1ccc(/C=C/C(=O)Nc2nc(-c3cccs3)ns2)cc1,active: 70.4%
14,CCOc1ccc2nc(N3CCN(C(=O)c4ccc(S(=O)(=O)CC)cc4)CC3)sc2c1,inactive: 4.28%
15,COc1ccc(Cn2c(=O)[nH]c3cc(C(=O)NCCC(C)C)ccc3c2=O)cc1,inactive: 2.75%
16,COc1ccc(CNC(=O)CS(=O)Cc2nc(-c3ccc(OC)c(OC)c3)oc2C)cc1 (stereo not drawn),inactive: -1.46%
17,CCn1c(C)c(C)c2cc(C(=O)NCCCN3CCCCC3C)ccc21 (stereo not drawn),inactive: 2.13%
18,Cc1ccc(N(CC(=O)Nc2cccc(Cl)c2C)S(=O)(=O)c2c(C)noc2C)cc1,inactive: -0.247%
19,C=C(CC)C(=O)c1ccc(OCC(=O)O)c(Cl)c1Cl,active: 89.6%
20,COc1cc(C(=O)N(Cc2ccc(F)cc2)Cc2ccco2)cc(OC)c1OC,inactive: -15.1%
21,COc1cc(-c2nc(-c3ccc4c(c3)[nH]c(=O)n4C)no2)cc(OC)c1OC,inactive: -2.27%

row,Compound,activation
1,CCOc1ccccc1NC(=O)C1CCN(S(=O)(=O)c2ccc3[nH]c(=O)ccc3c2)CC1,inactive: 9.11%
2,COc1ccc(-n2c(/C=C/c3cccc(C(F)(F)F)c3)nc3ccccc3c2=O)cc1Cl,inactive: -5.34%
3,CCOc1ccc(CCNC(=O)C2CCN(Cc3nc(-c4ccc(OC)c(OC)c4)oc3C)CC2)cc1OCC,inactive: 32.1%
4,C[N+](C)(C)CCOP(=O)(O)OP(=O)([O-])OC[C@H]1O[C@@H](n2ccc(N)nc2=O)[C@H](O)[C@@H]1O,inactive: 3.66%
5,Cn1cc(S(=O)(=O)N2CCCCCC2)cc1C(=O)N1CCN(c2cccc(C(F)(F)F)c2)CC1,inactive: 11.2%
6,CCC(=O)N1CCc2cc(Br)cc(S(=O)(=O)N3CCCC(C(=O)NCc4ccc(F)cc4)C3)c21 (stereo not drawn),inactive: -0.352%
7,Cc1ccc(S(=O)(=O)N2CCN(Cc3cc(Br)ccc3O)CC2)cc1,inactive: -1.34%
8,Cc1ccn2c(=O)cc(COc3ccc(NC(=O)COc4ccccc4)cc3)nc2c1,inactive: 4.13%
9,N#Cc1ccccc1NC(=O)C(=O)NCCc1csc(-c2ccc(C(F)(F)F)cc2)n1,inactive: -2.05%
10,CCc1ccc(NC(=O)COC(=O)CCCC2=NS(=O)(=O)c3ccccc3N2)cc1,active: 64.2%
11,O=C1CSC2(C(=O)N(Cc3ccccc3)c3ccccc32)N1c1cccc(F)c1 (stereo not drawn),inactive: -27.9%
12,COc1ccc(-c2nnc(SCC(=O)Nc3cc(OC)ccc3OC)nc2-c2ccc(OC)cc2)cc1,inactive: -37.5%
13,Cc1ccc2nc(COc3ccccc3NC(=O)c3ccccc3C)cc(=O)n2c1,inactive: -1.01%
14,COc1ccc(OC)c(NC(=O)c2ccc3c(SCC(=O)O)c4c(nc3c2)CCCC4)c1,inactive: -4.62%
15,COc1cc2c(cc1OC)C1CC(=O)C(CC(C)C)CN1CC2 (stereo not drawn),inactive: -18.5%
16,Cc1cccc(CCNC(=O)c2ccc3c(c2)nc2n3CCC(C)C2)c1 (stereo not drawn),inactive: -17.8%
17,COc1ccc(CCn2c(=O)c3cccnc3n(CC(=O)Nc3c(C)cccc3C)c2=O)cc1OC,inactive: -8.72%
18,CCc1cccc(C)c1NC(=O)Cn1c(=O)n(-c2ccc(C)cc2)c(=O)c2c1cnn2C,inactive: -18.1%
19,O=S(=O)(c1ccc(Cl)cc1)c1nc(-c2cccc(Br)c2)oc1NCc1ccccc1,inactive: 17.5%
20,O=C(c1ccco1)N1CCN(c2nc3c(F)cc(F)cc3s2)CC1,inactive: 13.4%
21,Nc1ccc(S(=O)(=O)NC(=O)c2ccccc2)cc1,inactive: 3.79%

row,Compound,activation
1,Cc1cccc(-c2noc(-c3ccc(NCc4ccco4)c([N+](=O)[O-])c3)n2)c1,inactive: 25.9%
2,COc1cccc(-c2ccc(-c3noc(-c4ccccc4Br)n3)c(OC)n2)c1,inactive: 1.68%
3,CCCC[C@@]1(C2CCCC2)Cc2cc(OCC(=O)O)c(Cl)c(Cl)c2C1=O,inactive: -2.04%
4,CCC(=O)N1c2ccccc2CC1C(=O)NCc1cccc(OC)c1OC (stereo not drawn),inactive: 18%
5,CCOc1ccc(-c2cn3c(n2)sc2cc(C(=O)NCCC4=CCCCC4)ccc23)cc1,inactive: -17.1%
6,CCOc1ccc(NC(=O)CSc2nnc(CC)c(CC)n2)cc1,inactive: -4.16%
7,CCN(CC)CCNC(=O)C1CCCN(c2nnc(C)c3c(C)n(-c4ccc(Cl)cc4)nc23)C1 (stereo not drawn),inactive: -4.39%
8,COc1ccccc1CNC(=O)c1ccc(NC(=O)N2CC(C)Sc3ccccc32)cc1 (stereo not drawn),inactive: -19.1%
9,Cc1cccc(C)c1NC(=O)C1CCCN(S(=O)(=O)c2c(C)noc2/C=C/N(C)C)C1 (stereo not drawn),inactive: -23.2%
10,COc1ccc(S(=O)(=O)NCC(c2ccco2)S(=O)(=O)c2ccc(C)cc2)cc1C (stereo not drawn),inactive: -23.1%
11,CCCCCCCCCCCCCCCC(=O)NCC(COP(=O)([O-])OCC[N+](C)(C)C)OCC (stereo not drawn),inactive: 7.91%
12,Cc1cccc(OCC(=O)Nc2ccc(C(=O)OCc3cc(=O)n4nc(C5CC5)sc4n3)cc2)c1,inactive: -5.52%
13,COC(=O)c1ccc(NC(=O)CSc2ccc(-c3cccs3)nn2)cc1,inactive: 2.12%
14,Cc1ccc(-c2noc(-c3cccnc3NCc3ccc(Cl)cc3)n2)cc1,inactive: 4.61%
15,Cc1ccc(-c2nc3scc(CCNS(=O)(=O)c4ccc(C)c(C)c4)n3n2)cc1,inactive: 7.42%
16,CCOC(=O)c1cc(-c2ccc(C)cc2)n(CCC(=O)NCc2ccccc2)c1C,inactive: -19.5%
17,CCCc1ncc(C[n+]2ccccc2C)c(N)n1,inactive: -5.43%
18,COc1ccc2cc(S(=O)(=O)c3ccccc3F)c(=O)oc2c1,inactive: -6.46%
19,CCc1ccc(NC(=O)C(Cc2ccccc2)NS(=O)(=O)c2ccc3c(c2)CCN3C(C)=O)cc1 (stereo not drawn),inactive: -6.84%
20,Cc1cc(C)c(NC(=O)c2cc(CN3CCOCC3)on2)c(C)c1,inactive: -1.85%
